{"source": "patent US11407771B2", "about": "(priority 2018, dated 2022)", "key": {"MCF-7": {"test_system": "MCF-7", "assay": "cells", "conditions": "Homo sapiens, MCF7, 72 h, read-out: MCF-7 IC50"}, "MDA-MB-231 [1]": {"test_system": "MDA-MB-231"}, "MDA-MB-231 [2]": {"test_system": "MDA-MB-231", "assay": "cells", "conditions": "Homo sapiens, MDA-MB-231, 72 h, read-out: MDA-MB-231 IC50"}, "[3]": {"test_system": "MUC5AC mucin formation in IL-13-stimulated hTEC", "assay": "cells", "conditions": "Homo sapiens, 504 h, read-out: MUC5AC IC50"}, "[4]": {"test_system": "MUC5AC mucin formation in IL-13-stimulated pTEC", "assay": "cells", "conditions": "Sus scrofa, 504 h, read-out: MUC5AC IC50"}, "[5]": {"test_system": "MUC5AC mucin formation in IL-13-stimulated pTEC", "conditions": "pig"}, "[6]": {"test_system": "MUC5AC mucin formation in IL-13-stimulated hTEC", "conditions": "human"}}, "data": [{"smiles": "Cc1ccc(-n2nc(C(C)(C)C)cc2NC(=O)Nc2ccc(OCCN3CCOCC3)c3ccccc23)cc1", "note": "[Compound 43, BIRB-796, reference compound]", "values": [{"measurement": "IC50", "setting": "MCF-7", "result": "> 1000", "unit": "nM"}, {"measurement": "breast cancer cell proliferation", "setting": "MDA-MB-231 [1]", "result": "no decrease"}, {"measurement": "IC50", "setting": "MDA-MB-231 [2]", "result": "> 1000", "unit": "nM"}]}, {"smiles": "Cc1ccc(-n2nc(C(C)(C)C)cc2NC(=O)Nc2ncc(CCc3ccnc(NC(=O)C4CC4)c3)s2)cc1", "note": "[Compound 331, Cyclopropanecarboxylic acid [4-(2-{2-[3-(5-tert-butyl-2-p-tolyl-2H-pyrazol-3-yl)-ureido]-thiazol-5-yl}ethyl)-pyridin-2-yl]-amide]", "values": [{"measurement": "IC50", "setting": "MCF-7", "result": 87, "unit": "nM"}, {"measurement": "IC50", "setting": "MDA-MB-231 [2]", "result": 79, "unit": "nM"}]}, {"smiles": "Cc1ccc(-n2nc(C(C)(C)C)cc2NC(=O)Nc2ncc(CCc3ccnc(NC(=O)C4CCC4)c3)s2)cc1", "note": "[Compound 332, Cyclobutanecarboxylic acid [4-(2-{2-[3-(5-tert-butyl-2-p-tolyl-2H-pyrazol-3-yl)-ureido]-thiazol-5-yl}-ethyl)-pyridin-2-yl]-amide]", "values": [{"measurement": "IC50", "setting": "MCF-7", "result": 65, "unit": "nM"}, {"measurement": "IC50", "setting": "MDA-MB-231 [2]", "result": 92, "unit": "nM"}]}, {"smiles": "CCOC(=O)Nc1cc(CCc2cnc(NC(=O)Nc3cc(C(C)(C)C)n[nH]3)s2)ccn1", "note": "[Compound 354, [4-(2-{2-[3-(5-tert-Butyl-2H-pyrazol-3-yl)-ureido]-thiazol-5-yl}-ethyl)-pyridin-2-yl]-carbamic acid ethyl ester]", "values": [{"measurement": "IC50", "setting": "[3]", "result": 0.008, "unit": "nM"}, {"measurement": "IC50", "setting": "[4]", "result": 0.289, "unit": "nM"}]}, {"smiles": "CC(=O)Nc1cc(Oc2ccc(NC(=O)Nc3cc(C(C)(C)C)nn3C)c(F)c2)ccn1", "note": "[Compound 391, N-(4-{4-[3-(5-tert-Butyl-2-methyl-2H-pyrazol-3-yl)-ureido]-3-fluoro-phenoxy}-pyridin-2-yl)-acetamide]", "values": [{"measurement": "IC50", "setting": "MCF-7", "result": 99, "unit": "nM"}, {"measurement": "IC50", "setting": "MDA-MB-231 [2]", "result": 78, "unit": "nM"}]}, {"smiles": "CC(=O)Nc1cc(Oc2ccc(NC(=O)Nc3cc(C(C)(C)C)on3)c(F)c2)ccn1", "note": "[Compound 394, N-(4-{4-[3-(5-tert-Butyl-isoxazol-3-yl)-ureido]-3-fluoro-phenoxy}-pyridin-2-yl)-acetamide]", "values": [{"measurement": "IC50", "setting": "MCF-7", "result": 65, "unit": "nM"}, {"measurement": "IC50", "setting": "MDA-MB-231 [2]", "result": 121, "unit": "nM"}]}, {"smiles": "CC(=O)Nc1cc(Oc2ccc(NC(=O)Nc3cc(C(C)(C)C)no3)c(F)c2)ccn1", "note": "[Compound 395, N-(4-{4-[3-(3-tert-Butyl-isoxazol-5-yl)-ureido]-3-fluoro-phenoxy}-pyridin-2-yl)-acetamide]", "values": [{"measurement": "IC50", "setting": "MCF-7", "result": 88, "unit": "nM"}, {"measurement": "IC50", "setting": "MDA-MB-231 [2]", "result": 76, "unit": "nM"}]}, {"smiles": "CC(=O)Nc1cc(Oc2ccc(NC(=O)Nc3cc(C4CC4)ccc3F)c(F)c2)ccn1", "note": "[Compound 397, N-(4-{4-[3-(5-Cyclopropyl-2-fluoro-pheny)-ureido]-3-fluoro-phenoxy}-pyridin-2-yl)-actamde]", "values": [{"measurement": "IC50", "setting": "[3]", "result": 0.002, "unit": "nM"}, {"measurement": "IC50", "setting": "[4]", "result": 1, "unit": "nM"}]}, {"smiles": "CC(=O)Nc1cc(CCc2cnc(NC(=O)Nc3cc(C4CC4)ccc3F)s2)ccn1", "note": "[Compound 398, N-[4-(2-{2-[3-(5-Cyclopropyl-2-fluoro-phenyl)-ureido]-thiazol-5-yl}-ethyl)-pyridin-2-yl]-acetamide]", "values": [{"measurement": "IC50", "setting": "[3]", "result": 0.004, "unit": "nM"}, {"measurement": "IC50", "setting": "[4]", "result": 0.281, "unit": "nM"}]}, {"smiles": "CC(=O)Nc1cc(Oc2ccc(NC(=O)Nc3cc([Si](C)(C)C)ccc3F)c(F)c2)ccn1", "note": "[Compound 399, N-(4-{3-Fluoro-4-[3-(2-fluoro-5-trimethylsilanyl-phenyl)-ureido]-phenoxy}-pyridin-2-yl)-acetamide]", "values": [{"measurement": "IC50", "setting": "[3]", "result": 0.004, "unit": "nM"}, {"measurement": "IC50", "setting": "[4]", "result": 0.263, "unit": "nM"}]}, {"smiles": "CC(=O)Nc1cc(CCc2cnc(NC(=O)Nc3cc([Si](C)(C)C)ccc3F)s2)ccn1", "note": "[Compound 400, N-[4-(2-{2-[3-(2-Fluoro-5-trimethylsilanyl-phenyl)-ureido]-thiazol-5-yl}-ethyl)-pyridin-2-yl]-acetamide]", "values": [{"measurement": "IC50", "setting": "[3]", "result": 0.003, "unit": "nM"}, {"measurement": "IC50", "setting": "[4]", "result": 0.01, "unit": "nM"}]}, {"smiles": "O=c1ncn2nc(Sc3ccc(F)cc3F)ccc2c1-c1c(Cl)cccc1Cl", "note": "[Compound 401, VX-745, reference compound]", "values": [{"measurement": "Cell Therapeutic Ratio", "setting": "[5]", "result": ">1"}, {"measurement": "Cell Therapeutic Ratio", "setting": "[6]", "result": ">1"}, {"measurement": "IC50", "setting": "[3]", "result": "> 1000", "unit": "nM"}, {"measurement": "IC50", "setting": "[4]", "result": "> 1000", "unit": "nM"}]}]}
